The values below come from publication PMC5847570 (2018).

The assay deals with Φ11DUT. In words: ITC. Background: In ITC the heat of successive injections is recorded.

B1: Staphylococcal repressor protein Stl_(SaPIBov1) (natural protein)
chain: not shown
For orientation: Kd means the constant that tells how readily two partners part at equilibrium. Lower therefore signals a tighter complex. For the molecule B1, binding was characterised by a dissociation constant (Kd) of 100 nM. This lies in the sub-micromolar range.
